Measured values reported in a compilation of properties of binary mixtures (doi:10.1021/acs.jced.9b00648).
The densities may have been worked out from excess volumes.

Test: xn = mol fraction of the nth substance listed
Settings: 100 kPa

CC#N + C=C[n+]1ccn(CC(N)=O)c1.O=S(=O)([N-]S(=O)(=O)C(F)(F)F)C(F)(F)F
x2 = 0
Settings | mass density [kg/m3]
298.15 K | 777.7
303.15 K | 772.3
308.15 K | 766.8
313.15 K | 761.3
318.15 K | 755.7
328.15 K | 744.5
333.15 K | 738.9

C=C[n+]1ccn(CC(N)=O)c1.O=S(=O)([N-]S(=O)(=O)C(F)(F)F)C(F)(F)F + CC#N
mass density [kg/m3]
Settings | 298.15 K | 303.15 K | 308.15 K | 313.15 K | 318.15 K | 323.15 K | 328.15 K | 333.15 K
x1 = 0.01 | – | 820.1 | – | 809.1 | – | 798 | 792.4 | 786.7
x1 = 0.1 | 1090.5 | – | 1079.6 | – | 1068.6 | 1063 | – | 1052
x1 = 0.201 | 1258.4 | – | – | 1242.3 | 1237 | 1231.6 | 1226.3 | –
x1 = 0.3026 | 1361.3 | 1356 | 1350.8 | 1345.5 | 1340.3 | – | 1329 | 1323.2
x1 = 0.4011 | 1426.7 | – | 1416.4 | – | 1406.1 | 1400.9 | – | 1389.8
x1 = 1 | 1607.1 | 1601.2 | – | 1588.1 | 1580.8 | – | – | 1561.1
